# Source: the supplement of paper PMC3334620
# Over roughly 33,000 sequences, “E-score (-0.5 to 0.5)” has its median near -0.035; the highest 2% begin near 0.35. The list shows a part of the results.
# Target: T1, Pdr3 (UniProt P33200)
# T1 sequence: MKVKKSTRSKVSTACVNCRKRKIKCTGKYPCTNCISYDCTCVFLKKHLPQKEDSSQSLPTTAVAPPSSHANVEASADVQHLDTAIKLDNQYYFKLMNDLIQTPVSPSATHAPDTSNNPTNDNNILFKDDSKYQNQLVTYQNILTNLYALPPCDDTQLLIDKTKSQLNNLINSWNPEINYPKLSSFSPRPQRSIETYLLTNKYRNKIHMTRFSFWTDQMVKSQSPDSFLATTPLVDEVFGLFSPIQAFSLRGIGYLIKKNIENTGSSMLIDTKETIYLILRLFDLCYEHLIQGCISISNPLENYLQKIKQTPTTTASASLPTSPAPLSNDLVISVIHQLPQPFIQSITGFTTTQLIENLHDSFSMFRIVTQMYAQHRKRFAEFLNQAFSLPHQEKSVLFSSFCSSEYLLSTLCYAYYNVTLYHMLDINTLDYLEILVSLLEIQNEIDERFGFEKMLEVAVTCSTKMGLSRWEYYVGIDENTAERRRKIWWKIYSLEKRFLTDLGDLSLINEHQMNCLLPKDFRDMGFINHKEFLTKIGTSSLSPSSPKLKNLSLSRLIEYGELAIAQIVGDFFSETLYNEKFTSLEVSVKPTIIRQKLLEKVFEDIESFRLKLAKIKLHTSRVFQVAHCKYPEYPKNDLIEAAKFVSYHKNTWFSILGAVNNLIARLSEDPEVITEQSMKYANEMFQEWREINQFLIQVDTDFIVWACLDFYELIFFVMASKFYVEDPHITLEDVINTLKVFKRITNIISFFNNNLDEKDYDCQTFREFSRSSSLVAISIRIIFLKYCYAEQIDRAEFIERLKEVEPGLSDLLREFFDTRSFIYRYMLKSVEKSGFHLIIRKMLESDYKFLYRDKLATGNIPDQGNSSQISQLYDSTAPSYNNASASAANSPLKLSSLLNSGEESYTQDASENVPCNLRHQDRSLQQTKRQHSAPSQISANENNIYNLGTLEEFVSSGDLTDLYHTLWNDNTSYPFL
# Experiment: PBM E-score (8-mer binding enrichment) (E-score (-0.5 to 0.5)); higher = stronger / more preferred TF binding; most listed sequences are background and not binding sites
# Conditions: protein concentration: 200 nM; construct: GST-full length
# Outline: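 The E-score, a modified Wilcoxon-Mann-Whitney statistic, was computed by the Universal PBM Analysis Suite for every ungapped eight-base word pooled with its reverse complement. Scans behind it were normalised with masliner after bound GST-tagged yeast transcription factors were detected with fluorescent anti-GST. The proteins, at about 100-200 nM, had been applied to universal all-10-mer Agilent arrays made double-stranded by primer extension.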
row,Sequence,PBM E-score
1,ATCATGTC,0.101
2,CAGAGGGG,-0.183
3,CTCTATTA,-0.229
4,CGATAAAC,-0.105
5,GTCTCAGA,-0.208
6,AGGCTACC,-0.213
7,ATGTTTTG,-0.0912
8,CAGTACGG,0.0168
9,GCGTCAGC,-0.0588
10,GCTTGCCC,-0.301
11,CGCTATAC,0.0515
12,GTACCGTA,0.029
13,GATTGGGC,0.0826
14,GGAAAACA,0.117
15,CTCTATCA,-0.27
16,CAAACGTA,-0.149
17,ACTGACCT,-0.0854
18,ACCTCCGG,0.402
19,AGAATCCA,-0.0157
20,AAGATATT,0.101
21,GTATGTTA,-0.0168
22,GATTAGTA,-0.0538
23,CGACTCGC,-0.176
24,GAGAATTA,-0.0704
25,ATAACGAC,-0.00828

row,Sequence,PBM E-score
1,ACCAGACC,-0.0204
2,CCAACGAC,-0.23
3,GATTAATA,0.158
4,GGGGAATA,0.121
5,TAAAACAA,-0.174
6,GATTCAGA,0.045
7,CCCTACAG,-0.246
8,ATCTTCAC,-0.0755
9,ACGCTTCA,-0.228
10,AAACCCGT,-0.0551
11,CCGGCTTA,0.356
12,ACGGTGTC,0.0212
13,GACCGCTC,-0.207
14,CTCTCCAG,-0.27
15,ACATATGT,0.0334
16,AGCTCCCC,-0.0962
17,CGATCTGA,0.0713
18,ACAGCGGC,0.0103
19,ATTGAGTC,-0.0879
20,GTCTACGA,-0.237
21,AGTTGTCC,0.196
22,CGGAACGA,0.464
23,GTCTAACA,-0.116
24,AAATTGCA,0.108
25,AAACCGCA,-0.0764

row,Sequence,PBM E-score
1,GACCCTGA,-0.277
2,CATCTATC,-0.059
3,TCGGGACA,0.167
4,AGTAGGTG,-0.151
5,CACGTTCA,-0.166
6,CCCGGTTC,0.259
7,AGGACAAA,0.0303
8,GCGCGATA,0.161
9,TGCAGAAA,0.0226
10,TCCGAGCA,0.324
11,ACCTAGCA,-0.127
12,CCAAAGGC,-0.205
13,AAGATATG,0.104
14,GAAGGCAA,0.177
15,CGTAGTAA,0.0211
16,AATCCAGG,0.0373
17,AATGCGAT,-0.0401
18,ACAGACGA,-0.048
19,GAGTGGAA,-0.124
20,AGGGCCAA,-0.208
21,ACGTCAGC,0.0284
22,AGCCAATC,-0.012
23,GCTATGAC,-0.078
24,CCGTCACG,0.238
25,CTGGTCGA,-0.104

row,Sequence,PBM E-score
1,GATAGTTA,0.064
2,AATTCGAA,-0.148
3,CTAGCTCA,-0.218
4,CATGGATC,0.0469
5,AGTATGCC,-0.0201
6,AGGAGCAA,-0.123
7,CACGTGAG,-0.13
8,GCCCGATA,-0.0521
9,CCGCAAAG,0.187
10,ACGGTTTC,0.0261
11,ACGTCTCA,-0.109
12,GCACATAC,-0.15
13,CACTATTC,0.114
14,AAGGATGA,-0.2
15,CATGCACG,-0.125
16,AAGTTCGG,0.203
17,CTGGACCA,-0.0399
18,AAGAGATG,-0.115
19,TGTCAGAA,-0.24
20,GCTACAAA,-0.0558
21,ACGTTGAA,0.0256
22,ATGCAACC,0.143
23,AGACGTTA,-0.314
24,GACCTTGA,-0.278
25,AGGTAGGG,-0.232

row,Sequence,PBM E-score
1,AAACATCA,-0.114
2,AGAATTCC,0.201
3,GGTGCCAA,-0.144
4,ACACTTGG,-0.125
5,ATCGGCTC,0.101
6,ACTTCGAG,-0.0109
7,CGCCGCTC,0.302
8,ATGATATC,0.0293
9,ATGAGCCA,-0.106
10,CCCCACGC,-0.138
11,CAGGGATC,-0.144
12,GACAAATA,0.0813
13,AGGACTCG,-0.202
14,TGATTGCA,-0.065
15,ACCCGCAC,0.226
16,CAGACGGG,0.103
17,AGGATTGC,-0.127
18,AAATCCCG,0.326
19,CGAGAATC,0.0591
20,ATCGACCA,-0.176
21,ACACAATC,-0.0293
22,CCCGCCTA,0.146
23,GGATTAAC,-0.0123
24,CGTCTAGC,-0.175
25,AATAAGAC,-0.334

row,Sequence,PBM E-score
1,AAGCCCGA,-0.033
2,GTGAGTGA,-0.0672
3,ACCCTAAC,-0.102
4,AATGATAG,0.184
5,ATCGTTTG,0.0176
6,GCCAAAGC,-0.197
7,GACTACAC,-0.142
8,ATCGCAGA,-0.213
9,ACTAAGCG,-0.136
10,CACGGCAA,0.177
11,CACAGGGC,-0.155
12,AACATCAG,-0.137
13,TACGGAAA,0.402
14,CGTGCCCA,0.0711
15,AAATGGTC,0.111
16,TACCGACA,0.134
17,ATCTCAGC,0.124
18,AAAGCCAT,0.0182
19,CGCATTCC,0.16
20,GGTCAGGA,-0.051
21,GGATAGCA,0.059
22,CTTCCTAC,-0.364
23,CTGTTAGA,-0.167
24,GGGTCTAC,0.0473
25,CACGGATC,0.395

row,Sequence,PBM E-score
1,ACCTAAAT,-0.00299
2,CTAACTTA,-0.0639
3,GAACCAGC,0.0502
4,ATAGTGTG,0.029
5,GCACCTGC,0.00979
6,CCAGGTCG,-0.161
7,AAGGTAGG,0.0215
8,GAGGAAAA,0.0256
9,CGATCATA,-0.0347
10,AACGGTCT,0.0116
11,AAACACTG,0.0276
12,CAGGTCAA,-0.159
13,GGACGCCC,0.1
14,TGGTGAAA,-0.109
15,CAGGCAAG,-0.166
16,CTGCAGCA,-0.0422
17,CGCCGCCC,0.21
18,CTTCAGTA,-0.00641
19,TAAAACCA,-0.273
20,ATCTGCGC,-0.0412
21,ACGCGCTA,-0.0535
22,GCATGCAA,0.0539
